Laboratory results taken from PubChem BioAssay (Tox21).
Inconclusive results, whose numbers are uncertain, are shown with a selection of clear calls. Potencies of inconclusive entries are left out as doubtful fits. Some structures have more than one record in an assay (separate samples or runs), and their calls can disagree. Activity calls are given as the source filed them. The call rests on the fitted dose curve; in most records, active means well fitted curve in the direction sought with a large enough effect in the repeat runs; inconclusive means weak or mixed curves; inactive means no such curve, though single readings can be large; an effect the other way counts as inactive or inconclusive.

assay: qHTS RealTime-Glo MT Cell Viability Assay in HEK293 cells - 40 hour (AID 1224874); settings: RealTime-Glo luminescence; max response: active compounds read low; further: nearly all actives have a fitted effect of over 50% in size; on max response: on the % scale 0 is the no-effect control and ±100 the full control effect
Procedure, shortened: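 Cells were seeded together with NanoLuc luciferase and a prosubstrate that viable cells reduce to a luciferase substrate. After a 5 h incubation at 37 C/5% CO2, compounds were added and luminescence was measured repeatedly during 40 h of treatment.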
Potency means the concentration at half of the fitted maximal effect; tags describe the fitted curve by direction and shape.

Compound | Potency | max response
C1CNCCN1 | inconclusive [rising, partial curve] | 
C=CCOC(=O)/C=C\C(=O)OCC=C | inconclusive [rising, partial curve, poor fit] | 
CCC(=O)O[C@]1(C(=O)SCF)[C@H](C)C[C@H]2[C@@H]3C[C@H](F)C4=CC(=O)C=C[C@]4(C)[C@@]3(F)[C@@H](O)C[C@@]21C |  | inactive: 2.57%

assay: A CellTox Green Cytotoxicity Assay to monitor cytotoxicity in HepG2 cells - 24 hour (AID 1224878); settings: CellTox Green fluorescence; series mostly up to 76.8 µM; further: nearly all actives have a fitted effect of over 45% in size; on Cytotoxicity: on the % scale 0 is the no-effect control and ±100 the full control effect
Procedure, shortened: (§1)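 Read-out is fluorescence of a cyanine dye excluded from live cells that stains DNA of dead HepG2 cells, with signal proportional to cytotoxicity. Plates were read at 0, 8, 16, 24, 32 and 40 h after compound addition.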

Compound | Potency
CCCCCCc1ccc(N)cc1 | active: 49 µM
O=C1NC2CCCCN2C12CCN(CCCN1c3ccccc3CCc3ccc(Cl)cc31)CC2 (stereo not drawn) | active: 23.9 µM
Cc1ccc2oc(=O)ccc2c1 | inactive
CCCCCCCCN(C)CCCCCCCC | inconclusive [activator, single point]

assay: A CellTox Green Cytotoxicity Assay to monitor cytotoxicity in HepG2 cells - 40 hour (AID 1224879); settings: CellTox Green fluorescence; series mostly up to 76.8 µM; further: nearly all actives have a fitted effect of over 40% in size
Procedure, shortened: as §1

Compound | Potency
CCCCCCc1ccc(N)cc1 | active: 49 µM
O=C(c1ccc(F)cc1)C1CCN(CCn2c(=S)[nH]c3ccccc3c2=O)CC1 | inconclusive [activator, single point]
O=C(c1ccccc1)c1ccc(O)cc1O | active: 43.6 µM
C[C@@H](C1=C(CCN(C)C)Cc2ccccc21)c1ccccn1 | inconclusive [activator, single point]
CCc1ccc(O)c(C(C)(C)C)c1 | active: 38.9 µM
CCCCCCCCN(C)CCCCCCCC | inconclusive [activator, single point]
